Reference: the supplement of paper PMC11348887
Counter-ions that a name gives are not always drawn. The list shows a part of the results. Rule as the data show it: active = -2 or less and inactive = the rest. Many values rest on one well or one pass, so single values are uncertain.

Tested on: hPSC-derived cortical neurons (WA09)
Experiment: nuclei number (viability) z-score; higher = more surviving cells
Conditions: 5 µM; treatment: days 7-14 after plating, readout day 21
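Also: nuclei counted from DAPI counterstain by automated high-content image analysis, four fields per well at ×20 in 384-well plates, with sequential b-score then z-score normalization.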

SMILES	nuclei number (z-score)
CC/C(=C(/CC)c1ccc(O)cc1)c1ccc(O)cc1 [Diethylstilbestrol]	inactive: 0.968
CC1=C(/C=C/C(C)=C/C=C/C(C)=C\C(=O)O)C(C)(C)CCC1 [Isotretinoin]	inactive: 0.222
OC(CN1CCN(c2cccc(Cl)c2)CC1)C(c1ccccc1)c1ccccc1 (configuration not stated)	inactive: 0.245
COc1cc(OC)c(/C=C/S(=O)(=O)Cc2ccc(OC)c(NCC(=O)O)c2)c(OC)c1	active: -3.95
CN(C)[C@@H]1C(O)=C(C(N)=O)C(=O)[C@@]2(O)C(O)=C3C(=O)c4c(O)cccc4[C@@](C)(O)[C@H]3[C@H](O)[C@@H]12 [Oxytetracycline (Terramycin)]	inactive: 1.73
CN(C)[C@@H]1C(O)=C(C(N)=O)C(=O)[C@@]2(O)C(O)=C3C(=O)c4c(O)cccc4[C@@](C)(O)[C@H]3[C@H](O)[C@@H]12 [Oxytetracycline Dihydrate]	active: -2.58
C/C(=C\c1ccc(C(=O)O)cc1)c1ccc2c(c1)C(C)(C)CCC2(C)C [TTNPB (Arotinoid Acid)]	inactive: 0.281
COc1ccc(-c2ccc3c(N4CCOCC4)nc(N4C[C@@H](C)O[C@@H](C)C4)nc3n2)cc1CO	inactive: 0.493
COc1cc(NC(C)CCCN)c2ncccc2c1 (configuration not stated) [Primaquine Diphosphate]	inactive: -0.239
Cc1noc(C)c1-c1ccc(-c2cc(C(N)=O)c(NC(N)=O)s2)c(O[C@H]2CCNC2)c1	inactive: 0.464
Cc1ccc([N+](=O)[O-])cc1S(=O)(=O)N(C)/N=C/c1cnc2ccc(Br)cn12	active: -3.48
CCCCCCCc1ccc(CCc2cccc(O)c2C(=O)O)cc1	inactive: 0.322
CCN(c1cc(C#CCN2CCOCC2)cc(C(=O)NCc2c(C)cc(C)[nH]c2=O)c1C)[C@H]1CC[C@H](N(C)CCOC)CC1	inactive: -0.0197
CC(C)(c1ccc(OCC(O)CO)cc1)c1ccc(OCC(O)CCl)cc1 (configuration not stated)	inactive: 0.437
CCCCN1CCCCC1C(=O)Nc1c(C)cccc1C (configuration not stated) [Bupivacaine HCl]	inactive: 1.04
CCOC(=O)c1[nH]c2cc(Cl)ccc2c1C(C(=O)NC(C)(C)C)N(C=O)Cc1ccc(Cl)cc1 (configuration not stated)	inactive: 0.189
CC(C)(C)c1ccc(C(O)CCCN2CCC(C(O)(c3ccccc3)c3ccccc3)CC2)cc1 (configuration not stated) [Terfenadine]	active: -8.52
Cc1ccc2c(=O)c3cccc(CC(=O)O)c3oc2c1C [DMXAA (Vadimezan)]	inactive: 0.887
C=C1/C(=C\C=C2/CCC[C@]3(C)[C@@H]([C@H](C)/C=C/[C@H](C)C(C)C)CC[C@@H]23)C[C@@H](O)C[C@@H]1O [Doxercalciferol]	inactive: 0.644
CCOP(=O)(OCC)C(=Cc1cc(C(C)(C)C)c(O)c(C(C)(C)C)c1)P(=O)(OCC)OCC	inactive: -0.0484
C[C@H]1O[C@@H](Oc2c(-c3cc(O)c(O)c(O)c3)oc3cc(O)cc(O)c3c2=O)[C@@H](O)[C@@H](O)[C@@H]1O [Myricitrin]	inactive: 0.853

SMILES	nuclei number (z-score)
Oc1cc2c(cc1O)[C@@H]1c3ccc(O)c(O)c3OC[C@]1(O)C2 [Hematoxylin]	inactive: -0.58
CC(C(=O)O)c1ccc2c(c1)CC(=O)c1ccccc1S2 (configuration not stated) [Zaltoprofen]	inactive: -0.102
COc1ccc(CC2c3cc(OC)c(OC)cc3CC[N+]2(C)CCC(=O)OCCCCCOC(=O)CC[N+]2(C)CCc3cc(OC)c(OC)cc3C2Cc2ccc(OC)c(OC)c2)cc1OC (configuration not stated) [Atracurium Besylate]	inactive: 1.56
CC(=O)[C@H]1CC[C@H]2[C@@H]3CC=C4C[C@@H](O)CC[C@]4(C)[C@H]3CC[C@]12C [Pregnenolone]	inactive: -0.814
CN(C)c1ccc(C(=C2C=CC(=[N+](C)C)C=C2)c2ccc(N(C)C)cc2)cc1 [Crystal Violet]	active: -7.04
C[C@@H](O)[C@H]1C(=O)N2C(C(=O)[O-])=C(SC3Cn4cnc[n+]4C3)[C@H](C)[C@H]12 (some centres not stated) [Biapenem]	inactive: 0.529
Cc1nc(-c2ccc(OCC(C)C)c(C#N)c2)sc1C(=O)O [Febuxostat]	inactive: 0.217
Cc1cc(Nc2nc(N[C@@H](C)c3ccc(F)cc3)c(C#N)cc2F)n[nH]1	active: -4.02
CC(C)c1ccc2c(c1)c(SC(C)(C)C)c(CC(C)(C)C(=O)O)n2Cc1ccc(Cl)cc1	inactive: 0.0771
CCN1CCN(Cc2ccc(-c3cc4c(N[C@H](C)c5ccccc5)ncnc4[nH]3)cc2)CC1	inactive: 1.14
CCOC(=O)c1c(CSc2ccccc2)n(C)c2cc(Br)c(O)c(CN(C)C)c12 [Arbidol HCl]	inactive: 0.877
COc1cc(N2CCC(N3CCN(C)CC3)CC2)ccc1Nc1ncnc(Nc2ccccc2S(=O)(=O)C(C)C)n1	inactive: -1.09
CCN(CCO)CCCC(C)Nc1ccnc2cc(Cl)ccc12 (configuration not stated) [Hydroxychloroquine Sulfate]	inactive: 0.104
Cc1nc(Nc2ncc(C(=O)Nc3c(C)cccc3Cl)s2)cc(N2CCN(CCO)CC2)n1 [Dasatinib Monohydrate]	active: -6.41
Cc1nc(Nc2ncc(C(=O)Nc3c(C)cccc3Cl)s2)cc(N2CCN(CCO)CC2)n1 [Dasatinib]	inactive: 3.15
COc1cc([C@@H]2c3cc4c(cc3[C@@H](O[C@@H]3O[C@@H]5CO[C@@H](c6cccs6)O[C@H]5[C@H](O)[C@H]3O)[C@H]3COC(=O)[C@H]23)OCO4)cc(OC)c1O [Teniposide]	active: -5.28
O=C1NC(=O)/C(=C/c2ccc3c(c2)OC(F)(F)O3)S1	inactive: -0.01
CCOc1ccccc1OC(c1ccccc1)C1CNCCO1 (configuration not stated) [Reboxetine mesylate]	inactive: -0.852
O=c1[nH]cnc2c1ncn2[C@@H]1O[C@H](CO)[C@@H](O)[C@H]1O [Inosine]	inactive: 1.53
CN(C)CCCN1c2ccccc2Sc2ccc(Cl)cc21 [Chlorpromazine HCl]	inactive: -0.58
C[C@H](Nc1ncnc2[nH]cnc12)c1cc2ccc(F)cc2nc1-c1ccccn1	inactive: -0.0374
